# Measurements reported in the BET-seq Pho4 binding data (Le et al. 2018).
# Some of the results follow. These are noisy estimates, calculated here from bound and input reads.
# Target: T1, Pho4 (S. cerevisiae) (UniProt P07270)
# T1 sequence: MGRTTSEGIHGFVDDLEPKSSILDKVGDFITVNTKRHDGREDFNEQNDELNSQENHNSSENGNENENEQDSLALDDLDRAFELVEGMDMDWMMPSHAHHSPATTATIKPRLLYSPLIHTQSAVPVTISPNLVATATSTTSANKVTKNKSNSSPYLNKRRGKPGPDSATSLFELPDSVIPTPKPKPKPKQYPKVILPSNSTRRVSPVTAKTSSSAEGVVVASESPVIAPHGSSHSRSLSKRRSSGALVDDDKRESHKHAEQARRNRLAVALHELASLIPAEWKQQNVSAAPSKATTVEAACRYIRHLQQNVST
# Assay: relative binding free energy (BET-seq); higher = weaker binding
# Conditions: reference: library average
row,Sequence,relative binding free energy [kcal/mol]
1,TTGGTCACGTGTGTTG,0.13
2,TTTGACACGTGTCGTA,0.02
3,GGTAGCACGTGTTGCA,-0.13
4,TAAATCACGTGTGTAC,0.31
5,CCCGTCACGTGGTGTG,-0.01
6,ATTATCACGTGGTTGC,0.21
7,ATGATCACGTGAAGGA,0.39
8,GATTGCACGTGGATAG,0.04
9,GGTTTCACGTGCGGAG,0.32
10,TGTTTCACGTGCCGTT,0.24
11,CGACGCACGTGGTTGG,-0.16
12,TGGGCCACGTGATAGG,0.03
13,GCTCTCACGTGGGGGG,0.13
14,GAGGTCACGTGGGCAA,0.01
15,TGGGCCACGTGTAGTT,-0.01
16,AATCGCACGTGGTGTA,-0.18
17,ATCAACACGTGTTGTT,-0.05
18,TTTGACACGTGTGATA,0.14
19,CTTCTCACGTGTGGAG,0.36
20,TTGCTCACGTGGAGTT,0.26
21,GTTCTCACGTGTGTGT,0.24
22,TGAACCACGTGGTTTG,0.02
23,TTAGTCACGTGACGGC,0.25

row,Sequence,relative binding free energy [kcal/mol]
1,ATAGGCACGTGGGACG,-0.2
2,CTGTTCACGTGGGCCT,0.2
3,GGTGGCACGTGCAGTA,-0.19
4,TCGTTCACGTGTGTTA,0.2
5,GGGGCCACGTGGGGCC,-0.17
6,AGTGACACGTGGGTTA,-0.19
7,ATTAACACGTGTTGGA,0.09
8,TGACACACGTGGTGGT,-0.23
9,GTGCACACGTGGCTGG,0
10,TGGGACACGTGATATT,0.16
11,GGAATCACGTGGGGAT,0.16
12,GGCTTCACGTGTGGGG,0.31
13,GTTAGCACGTGAGACG,0.29
14,AAAATCACGTGGTTGG,0.04
15,CTAGGCACGTGTAAGG,-0.03
16,GGGTTCACGTGAGGCT,0.59
17,GAGGGCACGTGTGGCC,0.04
18,GTGAACACGTGGTTTT,0.06
19,CAGTGCACGTGGGTAT,-0.22
20,GCTTGCACGTGCGAGG,0.03
21,ACTAACACGTGTGGGG,-0.03
22,GTTTGCACGTGATCTG,0.2
23,GAATACACGTGGCGGT,0.1

row,Sequence,relative binding free energy [kcal/mol]
1,TGTAGCACGTGCATTG,-0.12
2,TTTTACACGTGTCCGT,0.25
3,AGTTACACGTGCTGTG,0.07
4,ATTGGCACGTGCATTG,-0.21
5,TTTGTCACGTGATGGC,0.28
6,GTTTCCACGTGGTGAG,0.13
7,CGTTACACGTGAGGTT,0.24
8,TCATACACGTGGATTT,0.19
9,TTTCACACGTGGTATA,0.05
10,TGTCTCACGTGGTTAC,0.24
11,AATATCACGTGGAGTG,0.02
12,GAGTGCACGTGTAGAG,0.07
13,GTAGTCACGTGTTTTC,0.19
14,AGTGGCACGTGGCGCG,-0.09
15,TGCGGCACGTGCGTGT,-0.05
16,TTAATCACGTGGATTT,0.2
17,AGTGGCACGTGGGGAG,-0.18
18,TGGCACACGTGGGGTC,-0.22
19,TGTTGCACGTGGATGA,0.01
20,TAGGGCACGTGGTTTA,-0.12
21,GGCGGCACGTGGGTGT,-0.18
22,TTGATCACGTGCAGGG,0.11
23,TGATTCACGTGGGTGC,0.27

row,Sequence,relative binding free energy [kcal/mol]
1,GCAGCCACGTGGGGGG,-0.21
2,TGTAGCACGTGAGGAA,0.18
3,TTCGACACGTGTGGTA,0.13
4,GGGTGCACGTGTGAAT,0.13
5,ATTTGCACGTGAGGAG,0.2
6,GGCCGCACGTGGTAGG,0.09
7,TGATTCACGTGGCAGA,0.34
8,AGGAGCACGTGAATGT,0.38
9,ATGGGCACGTGGGCCT,-0.25
10,TTATGCACGTGGGAGT,-0.07
11,TAACGCACGTGGGTAG,-0.2
12,TCCTTCACGTGTTGTT,0.22
13,AAAGCCACGTGGTTTG,-0.11
14,AAGTACACGTGTATGG,0.1
15,CATTGCACGTGGGGCG,-0.13
16,TTATACACGTGTGGCT,0.11
17,AGGTACACGTGGGACT,-0.01
18,TCTGGCACGTGATATA,-0.02
19,AGAGACACGTGTAGTT,0.15
20,ATTTTCACGTGCTTTC,0.24
21,CAAGGCACGTGGGGAT,-0.1
22,TAGTCCACGTGGTGTT,-0.14
23,CTTGTCACGTGGGAGG,-0.03

row,Sequence,relative binding free energy [kcal/mol]
1,GGTTGCACGTGTAAAA,0.04
2,GGTGTCACGTGATTAT,0.21
3,ATGTGCACGTGTCTGT,-0.09
4,ATTGTCACGTGTTGCA,0
5,ATTTGCACGTGAAGCG,0.23
6,TAGGACACGTGGTCGA,-0.09
7,ACGAGCACGTGTGGTT,-0.11
8,GTCATCACGTGCGTTG,0.17
9,AGATGCACGTGTATTA,-0.01
10,GTTAACACGTGATGAA,0.24
11,TACTTCACGTGTGGGA,0.18
12,GTTTACACGTGAGTTA,0.26
13,AGTCGCACGTGTTCGG,-0.04
14,CGGTTCACGTGCTGGA,0.17
15,CGCGCCACGTGGGTGT,-0.26
16,GACGGCACGTGTATTT,0.16
17,GTTGCCACGTGTTGCG,-0.08
18,ATTTACACGTGGAAGT,0.25
19,AAATGCACGTGTGTAA,0.14
20,AGGTACACGTGTATGT,0.02
21,TTGAACACGTGGATTA,0.08
22,CATTGCACGTGTGAGG,0.01
23,TGGGTCACGTGTGATC,0.09
